Here are results for four molecules from paper PMC9983901.

Assay [1] deals with T1, SYP-3 full length (Gal4 DNA binding domain fusion) (C. elegans) (UniProt O62238).
T1 sequence: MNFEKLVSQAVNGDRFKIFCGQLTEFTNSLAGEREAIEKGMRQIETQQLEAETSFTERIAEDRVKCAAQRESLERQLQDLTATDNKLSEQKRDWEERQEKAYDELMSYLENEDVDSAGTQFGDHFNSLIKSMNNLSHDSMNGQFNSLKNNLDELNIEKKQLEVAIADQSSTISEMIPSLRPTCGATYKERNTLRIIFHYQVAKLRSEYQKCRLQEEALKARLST
Briefly: two-hybrid; GRAS-1 constructs in pVV213 (activation domain), SYP constructs in pVV212 (Gal4 DNA binding domain); strains mated on YPD, selected on SC Leu- Trp-.

For a further assay, the target named is T2, GRAS-1::GFP (C. elegans) (UniProt Q93654).
T2 sequence: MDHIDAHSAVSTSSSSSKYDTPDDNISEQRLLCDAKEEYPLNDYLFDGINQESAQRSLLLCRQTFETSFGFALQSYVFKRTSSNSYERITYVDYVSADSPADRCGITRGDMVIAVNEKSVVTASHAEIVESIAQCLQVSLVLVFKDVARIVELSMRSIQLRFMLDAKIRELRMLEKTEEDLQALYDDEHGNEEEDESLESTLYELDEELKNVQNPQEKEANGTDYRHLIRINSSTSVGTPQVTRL
Briefly: co-IP; immunoprecipitation with a GFP antibody from whole worm lysates (gras-1::gfp, syp-2::gfp, wild type); Western blot with anti-SYP-3.

The target of assay [2] is T3, SYP-4 full length (Gal4 DNA binding domain fusion) (C. elegans) (UniProt Q9N5K3).
T3 sequence: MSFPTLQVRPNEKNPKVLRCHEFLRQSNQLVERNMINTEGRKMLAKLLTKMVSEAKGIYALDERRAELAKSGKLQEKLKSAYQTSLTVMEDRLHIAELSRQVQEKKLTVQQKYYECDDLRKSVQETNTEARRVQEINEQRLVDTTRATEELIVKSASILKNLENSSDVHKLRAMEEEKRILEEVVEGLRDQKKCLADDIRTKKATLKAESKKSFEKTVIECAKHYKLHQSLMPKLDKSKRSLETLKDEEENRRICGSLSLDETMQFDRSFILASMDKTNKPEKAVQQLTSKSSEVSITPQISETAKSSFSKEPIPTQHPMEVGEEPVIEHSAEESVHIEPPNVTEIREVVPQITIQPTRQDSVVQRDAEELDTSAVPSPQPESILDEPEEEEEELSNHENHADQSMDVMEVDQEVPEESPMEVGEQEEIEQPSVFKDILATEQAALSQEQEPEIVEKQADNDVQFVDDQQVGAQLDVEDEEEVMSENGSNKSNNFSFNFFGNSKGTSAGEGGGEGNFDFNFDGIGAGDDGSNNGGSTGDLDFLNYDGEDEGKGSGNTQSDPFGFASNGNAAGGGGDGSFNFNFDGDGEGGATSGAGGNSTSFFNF
The assay can be described thus: two-hybrid; GRAS-1 constructs in pVV213 (activation domain), SYP constructs in pVV212 (Gal4 DNA binding domain); strains mated on YPD, selected on SC Leu- Trp-.

No constants are given. Whether binding was seen depends on the method and setting. For some assays here: In cells and extracts the contact can be indirect. Some results given as binding are weak or reduced against the parent protein; the word gives no strength. Where a sequence is shown, tags or fusion partners need not be part of it.

B1: GRAS-1 ΔNt^69-245 (domain or fragment, UniProt Q93654 69-245)
chain: FGFALQSYVFKRTSSNSYERITYVDYVSADSPADRCGITRGDMVIAVNEKSVVTASHAEIVESIAQCLQVSLVLVFKDVARIVELSMRSIQLRFMLDAKIRELRMLEKTEEDLQALYDDEHGNEEEDESLESTLYELDEELKNVQNPQEKEANGTDYRHLIRINSSTSVGTPQVTRL
In the case of B1, the binding entry in assay [1] is given as “no binding”.

B2: GRAS-1 ΔCt^1-163 (domain or fragment, UniProt Q93654 1-163)
chain: MDHIDAHSAVSTSSSSSKYDTPDDNISEQRLLCDAKEEYPLNDYLFDGINQESAQRSLLLCRQTFETSFGFALQSYVFKRTSSNSYERITYVDYVSADSPADRCGITRGDMVIAVNEKSVVTASHAEIVESIAQCLQVSLVLVFKDVARIVELSMRSIQLRFM
In the case of B2, the binding result in assay [1] is “binds”.

B3: SYP-3 (protein, UniProt O62238 1-224)
chain: T1 sequence
For the molecule B3, the binding result with GRAS-1::GFP (C. elegans) is “binds”.

B4: GRAS-1 full length (activation domain fusion) (protein, UniProt Q93654 1-245)
chain: T2 sequence
Consider B4, for which the binding entry was “binds” in assay [1] and “no binding” in assay [2].
